# The supplement of paper PMC12217912
# Some of the results follow. Sequences were assembled here from the parent chain. Inactive controls read about 0.05.
# B1: TEV protease; numbered along this chain (parent)
# chain: MGESLFKGPRDYNPISSSICHLTNESDGHTTSLYGIGFGPFIITNKHLFRRNNGTLVVQSLHGVFKVKDTTTLQQHLVDGRDMIIIRMPKDFPPFPQKLKFREPQREERICLVTTNFQTKSMSSMVSDTSCTFPSGDGIFWKHWIQTKDGQCGSPLVSTRDGFIVGIHSASNFTNTNNYFTSVPKNFMELLTNQEAQQWVSGWRLNADSVLWGGHKVFMVKPEEPFQPVKEATQL
# Variants of: B1
# Assay: raw area under fraction-flipped curve 0-4 h after induction (AUC4h, not background-subtracted), DNA-recorder readout of cleavage of the substrate (dimensionless); higher = more cleavage of the substrate by the protease variant
# Conditions: temperature: 34 °C; time window: 0-4 h after rhamnose induction
# 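Also: Bxb1 expression induced with 0.2% (w/v) L-rhamnose at OD600 near 0.5, cultures sampled hourly, flipped fraction per protease–substrate barcode pair counted by paired-end Illumina sequencing.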
Variant,area with substrate ENLYMQS,area with substrate ENLYNQS,area with substrate ENLYTQS,area with substrate ENLYPQS,area with substrate ENLYRQS,area with substrate ENLYVQS,area with substrate ENLYQQS,area with substrate ENLYSQS,area with substrate ENLYWQS,area with substrate ENLYYQS
MGESLFKGPRDYNPISSSICHLTNESDGHTTSLYGIGFGPFIITNKHLFRRNNGTLVVQSLHGVFKVKDTTTLQQHLVDGRDMIIIRMPKMFPPFPQKLKFREPQREERICLVTTNFQTKSMSSMVSDTSCTFPSGDGIFWKHWIQTKDGQCGSPLVSTRDGFIVGIHSASNFTNTNNYFTSVPKNFMELLTNQEAQQWVSGWRLNADSVLWGGHKVFMVKPEEPFQPVKEATQL [D91M],0.156,0.0652,0.0753,–,–,–,–,–,–,–
MGESLFKGPRDYNPISSSICHLTNESDGHTTSLYGIGFGPFIITNKHLFRRNNGTLVVQSLHGVFKVKDTTTLQQHLVDGRDMIIIRMPKDFPPFPQKLKFREPQREERICLVTTNFQTKSMSSMVSDTSCTFPSGDGIFWKHWIQTKDGQCGSPLVSTRDVFIVGIHSASNFTNTNNYFTSVPKNFMELLTNQEAQQWVSGWRLNADSVLWGGHKVFMVKPEEPFQPVKEATQL [G162V],0.0402,–,–,0.0666,0.0562,0.0857,–,–,–,–
MGESLFKGPRDYNPISSSICHLTNESDGHTTSLYGIGFGPFIITNKHLFRRNNGTLVVQSLHGVFKVKDTTTLQQHLVDGRDMIIIRMPKDFPPFPQKLKFREPQREERICLVTTNFQTKSMSSMVSDTSCTFPSGDGIFWKHWIQTKDGQCGSPLVSTRDGSIVGIHSASNFTNTNNYFTSVPKNFMELLTNQEAQQWVSGWRLNADSVLWGGHKVFMVKPEEPFQPVKEATQL [F163S],0.0792,–,–,–,–,–,–,–,–,–
MGESLFKGPRDYNPISSSICHLTNESDGHTTSLYGIGFGPFIITNKHLFRRNNGTLVVQSLHGVFKVKDTTTLQQHLVDGRDMIIIRMPKDFPPFPQKLKFREPQREERICLVTTNFQTKSMSSMVSDTSCTFPSGDGIFWKHWIQTKDGQCGSPLVSTRDGFIVGIHSASNFTNTNNYFVSVPKNFMELLTNQEAQQWVSGWRLNADSVLWGGHKVFMVKPEEPFQPVKEATQL [T181V],0.0669,0.0655,0.0593,0.0545,–,0.0813,0.0736,0.078,0.0443,–
MGESLFKGPRDYNPISSSICHLTNESDGHTTSLYGIGFGPFIITNKHLFRRNNGTLVVQSLHGVFKVKDTTTLQQHLVDGRDMIIIRMPKDFPPFPQKLKFREPQREERICLVTTNFQTKSMSSMVSDTSCTFPSGDGIFWKHWIQTKDGQCGSPLVSTRDGFIVGIHSASNFTNTNNYFTSVPKRFMELLTNQEAQQWVSGWRLNADSVLWGGHKVFMVKPEEPFQPVKEATQL [N186R],0.0909,–,–,–,–,–,–,–,–,0.0665
MGESLFKGPRDYNPISSSICHLTNESDGHTTSLYGIGFGPFIITNKHLFRRNNGTLVVQSLHGVFKVKDTTTLQQHLVDGVDMIIIRMPKDFPPFPQKLKFREPQREERICLVTTNFQTKSMSSMVSDTSCTFPSGDGIFWKHWIQTKDGQCGSPLVSTRDGFIVGIHSASNFTNTNNYFTSVPKNFMELLTNQEAQQWVSGWRLNADSVLWGGHKVFMVKPEEPFQPVKEATQL [R81V],–,0.0661,–,–,–,–,0.0645,0.0777,0.0765,–
MGESLFKGPRDYNPISSSICHLTNESDGHTTSLYGIGFGPFIITNKHLFRRNNGTLVVQSLHGVFKVKDTTTLQQHLVDGRDMIIINMPKDFPPFPQKLKFREPQREERICLVTTNFQTKSMSSMVSDTSCTFPSGDGIFWKHWIQTKDGQCGSPLVSTRDGFIVGIHSASNFTNTNNYFTSVPKNFMELLTNQEAQQWVSGWRLNADSVLWGGHKVFMVKPEEPFQPVKEATQL [R87N],–,0.0653,–,–,–,–,–,–,–,–
MGESLFKGPRDYNPISSSICHLTNESDGHTTSLYGIGFGPFIITNKHLFRRNNGTLVVQSLHGVFKVKDTTTLQQHLVDGRDMIIIRMPKEFPPFPQKLKFREPQREERICLVTTNFQTKSMSSMVSDTSCTFPSGDGIFWKHWIQTKDGQCGSPLVSTRDGFIVGIHSASNFTNTNNYFTSVPKNFMELLTNQEAQQWVSGWRLNADSVLWGGHKVFMVKPEEPFQPVKEATQL [D91E],–,0.0741,–,–,–,–,–,–,–,–
MGESLFKGPRDYNPISSSICHLTNESDGHTTSLYGIGFGPFIITNKHLFRRNNGTLVVQSLHGVFKVKDTTTLQQHLVDGRDMIIIRMPKDFPPFPQKLKFNEPQREERICLVTTNFQTKSMSSMVSDTSCTFPSGDGIFWKHWIQTKDGQCGSPLVSTRDGFIVGIHSASNFTNTNNYFTSVPKNFMELLTNQEAQQWVSGWRLNADSVLWGGHKVFMVKPEEPFQPVKEATQL [R102N],–,0.0643,–,–,–,–,–,0.033,–,–
MGESLFKGPRDYNPISSSICHLTNESDGHTTSLYGIGFGPFIITNKHLFRRNNGTLVVQSLHGVFKVKDTTTLQQHLVDGRDMIIIRMPKDFPPFPQKLKFREPQREERICLVTTNFQTKSMSSMVSDTSCTFPLGDGIFWKHWIQTKDGQCGSPLVSTRDGFIVGIHSASNFTNTNNYFTSVPKNFMELLTNQEAQQWVSGWRLNADSVLWGGHKVFMVKPEEPFQPVKEATQL [S135L],–,0.0516,–,–,0.0522,0.0598,–,–,–,0.0519
MGESLFKGPRDYNPISSSICHLTNESDGHTTSLYGIGFGPFIITNKHLFRRNNGTLVVQSLHGVFKVKDTTTLQQHLVDGRDMIIIRMPKDFPPFPQKLKFREPQREERICLVTTNFQTKSMSSMVSDTSCTFPSGDGIFWKHWIQTKDGQCGSPLVSTRDGFIVGIHSASWFTNTNNYFTSVPKNFMELLTNQEAQQWVSGWRLNADSVLWGGHKVFMVKPEEPFQPVKEATQL [N172W],–,0.0666,–,–,–,–,–,–,–,–
MGESLFKGPRDYNPISSSICHLTNESDGHTTSLYGIGFGPFIITNKHLFRRNNGTLVVQSLHGVFKVKDTTTLQQHLVDGRDMIIIRMPKDFPPFPQKLKFREPQREERICLVTTNFQTKSMSSMVSDTSCTFPSGDGIFWKHWIQTKDGQCGSPLVSTRDGFIVGIHSASNFTNTNNYFTSVPKNFMELLTNQEAQQWVSGWRSNADSVLWGGHKVFMVKPEEPFQPVKEATQL [L205S],–,0.0501,–,–,–,–,–,–,–,–
MGESLFKGPRDYNPISSSICHLTNESDGHTTSLYGIGFGPFIITNKHLFRRNNGTLVVQSLHGVFKVKDTTTLQQHLVDGRDMIIIRMPKDFPPFPQKLKFREPQREERICLVTTNFQTKSMSSMVSDTSCTFPSGDGIFWKHWIQTKDGQCGSPLVSTRDGFIVGIHSASNFTNTNNYFTSVPKNFMELLTNQEAQQWVSGWRLNADSVLWGGSKVFMVKPEEPFQPVKEATQL [H215S],–,0.0493,–,0.0583,–,–,–,–,–,–
